The source gives no read counts; variants with many changes may rest on few reads.
B1: LINE1-full (parent)
chain: UACGUAGGUGGUUUUCCCCUGAUAGUGCUAAGGGGGCCUGGAAGUUUGGACUGGGCAGAGCUCAACACAGCGUGGCAAAGUGGCUGUGGCUAGACUGCCUCUCUGGAUUCCUCGUCACUCAGCAGGGCAUCUCUGAGAGAAAUGCC

Variants of: B1
Assay: self-cleavage, relative activity (ratio to wild type); higher = more cleavage; in vitro, sequencing; the parent is a self-cleaving ribozyme

Variant | self-cleavage
C61A A65G U73A U100A | 0.04
A64G U85G U87A U119C | 0.17
A64U U73G A136G | 0.55
A65U U81A A141G A142G | 0.38
A64U A138G A140G | 0.74
A64U U96A U108A | 0.06
A65G U81G A136U | 0.05
U62C A138G U143C | 0.07
C61U A141G U143C | 0.04
A64G A107G U115C | 0.69
A64G U132G A141G A142G | 0.23
U62G U96C A129G | 0
U62A A67G G86A | 0.05
U62A U73A A129G | 0.04
A64G A67U U143A | 0.05
A64U U115C A140G A142G | 0.68
U62A U91C U132A | 0.03
A64G C116U U143A | 0.22
A65G A69U A77C | 0.05
A65G A69G U85A U104C | 0
A65G U81C A124U A140G | 0
A64C U87G G88U C95U | 0.04
U62C A69G U134C | 0.17
A64G U96C A136G | 0

Variant | self-cleavage
U62C A69U U119A A136U | 0.07
U62C U134A A141G | 0.04
A59U U130C C146U | 0.91
U62C A124U A142G | 0.1
A65G A94U U112C | 0
A65G U96A U112C U115A A138U | 0
A64G U115A A136G | 0.2
A65G A69U U132C | 0
U62C U112C A121C | 0
A64U A69U A77G A79G | 0
A64G A94U U115C | 0
U62C U96A A140G | 0.05
A65G A77G U119C | 0
A65G G75A U100C | 0.04
A65G U119A U130C A142G | 0.12
A59U U73A G127U | 0.86
U62C U91C U112C | 0.09
G60A A92G U130C | 0.16
A65G U73C A121G | 0
A65G U81A A94U | 0.03
A64U U112C C113A | 0.09
C61U U115A A124U A136G | 0.05
A65G U100A A129G A141G | 0
A64G A77U A129G | 0.39

Variant | self-cleavage
A65G A69G A129G | 0
A65G G106U A129U C146U | 0.07
A65G A78G A140G | 0.12
A65G A77C G88A U109C A121G | 0.2
C61A U100A U119C | 0.05
U62C A65G U132G | 0
A65G U87A U108A | 0
A59U C76U U102C | 1.09
A65U U85C A121G | 0
C61U U85A A141G | 0.04
A59U A79G U100C | 1.35
U62C G125U A138G | 0.01
G60U G83U U91C | 0.06
U62C U87A U104C | 0
U62A A78G C103U | 0.04
A65U A124G U134C | 0
A65G A77G U132C A138G | 0
A65G U87A U119C | 0.03
A65C U102C U119A | 0.06
A64G A67U U73A G137U | 0.07
U62C A78G U119A | 0
U62C U85C G114A | 0.03
U62A A117C A129G | 0
U62C U100A A117G | 0

Variant | self-cleavage
A59U A94U U96C A141G | 0.18
C61A U62C U85C U87C G106U U115A A138G | 0.02
U62A C63A A142G | 0.1
C63U U85C A129U A142G | 0.06
U62A U102C A107G | 0
U62A A79G U91C G97A | 0.06
A64G G74A U112C | 0.15
A64G A65C G93U | 0.01
U62C U85A U100C U115A | 0.07
A64U A94G C113A | 0.07
A64G C71A U134C | 0.03
A64U U73A A77U U132A | 0.27
U62A A79G U96A U132A | 0.04
U62A C76U U85A | 0.05
A64G A124U U134C | 0.31
A64G A67G A141G | 0
A59U U134G C146A | 0.85
U62C A69U C120U | 0.01
U62C A65G A79U U100C A142G | 0
U62C U104A C116A | 0.03
A64G U73A A129G U132A | 0.52
A64U U81C U96C A129G | 0.19
A65U U100C U132C A138G | 0.3
A64G A69G A77G | 0.77

Variant | self-cleavage
A65U A79G A124G | 0.07
U62A U96A U130A | 0.04
A65G A77G U112C | 0.06
U62A U112A A142G | 0.09
A65U U91A U102A | 0.14
G60A A77U U87C A94G U108C | 0.11
U62A U102C U104A | 0
A65G U73A A141G | 0
A65U U73A U108C U143G | 0.22
A65C A69U G83A | 0.02
A65U U112C G125U A140G | 0.11
C61A U73C U81C A121G | 0.17
A65U U100C U109A A138G A140U | 0.28
A64C A67G A77G U104A A129U | 0
A64G U81A A141U | 0.22
A64U A92G A138G | 0.18
A65U U73C A142G | 0
G60A G86A U109C | 0.03
G60U A136G A142G | 0.04
A64G A79G G127A | 0.21
A65G C90U A142G | 0
A64C A141G U143A | 0.09
A65G A79U A107G | 0
U62A G82A C128U C131U | 0.01

Variant | self-cleavage
U62A A67G U115A | 0.21
U62C U115C G127U | 0.06
A59U A77U U132C | 0
U62C U100C U112C | 0
U62C A77U G126C U134C | 0.1
U62C U87G U109C | 0
U62A U104A A117G | 0.07
U62A A129G U130C | 0
U62C A78G U91C A142G | 0
A64G U85A U104A A138G | 0.08
A65G G70U U104C U115C C123U G125U U130C | 0
C61U U87G U132C | 0.08
U62C C63A U73C C145G | 0.07
A65G U85A A136G | 0.13
A65G U85A A136U | 0.02
A64G U100C C111U A136G | 0.32
U62C C120A A140G | 0.22
A64G A78U A129G | 0.18
A64G G86A C99G U109A | 0.02
U62C U81C U109A | 0.02
A64C U73A A141G | 0.33
A64U U119C U132C | 0.16
U62C U104C A129C A140G | 0
A64U A79G C103A U104C U134A | 0.06

Variant | self-cleavage
A65G G105U G106A A141G | 0.03
A65U C113A A136C | 0.08
A65U U91C A117G U130A U134G A141G | 0.44
A64G A117G U130C A136G | 0
A64C A129G A136G | 0.5
A64G A69U U91A | 0.06
A65G A77U U109C A117G A129U A138G A140G | 0
U62A U130A A140G | 0
U62C A64U G86U U87A A138G | 0.05
A64G A92G A142G | 0
A64G A77G U115A | 0.53
U62C G80A U85C A121U | 0.03
U62C A77G A121G | 0.13
G60U U81A A136G | 0.03
A65G G83U A124G C128U | 0.05
C61A A67G A129U | 0.04
U62A U102C G127A | 0.05
A59U C84G C101U | 0.09
U62A U87A U104C | 0.02
A65G A77G A78G A124U | 0
A64U A69G A79G | 0.05
A59U C71A G83A U100A | 0.12
U62C A67G U132C A141G | 0

— the RNAGym collection of RNA variant scans (doi:10.7554/elife.90254)
